# Assay results taken from the supplement of paper PMC8728848.
# This is one part of the list.
# B1: rAAL-H59Q (Agrocybe aegerita), Q6WY08 (protein)
# chain: MQGVNIYNISAGTSVDLAAPVTTGDIVTFFSSALNLNAGAGNPNNTTLNLFAENGAYLLQIAFRLQENVIIFNSRQPDGPWLVEQRVSDVANQFAGIDGKAMVTVFDHGDKYQVVINEKTVIQYTKQISGLTLSLSYNATEETSIFSTVVEAVTYTGLALEHHHHHH
# What was measured:
# Assay in all cases: glycan array binding signal (z-score within array); higher = stronger binding
# Conditions in all cases: glycan notation: IUPAC condensed, linker removed; mutation: H59Q
# [1] = target: Neu5Ac(a2-6)Gal(b1-4)GlcNAc(b1-2)Man(a1-3)[GlcNAc(b1-4)][Neu5Ac(a2-6)Gal(b1-4)GlcNAc(b1-2)Man(a1-6)]Man(b1-4)GlcNAc(b1-4)GlcNAc
# Procedure, shortened: (§1)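 From the Consortium for Functional Glycomics database, 3228 arrays were curated, keeping only those whose protein sequence was available. Binding is given as a within-array Z-score averaged across arrays sharing a protein sequence and across linkers. Negative Z-scores can be read as non-binding.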
# [2] = target: Neu5Ac(a2-6)Gal(b1-4)GlcNAc(b1-2)Man(a1-3)[Man(a1-6)]Man(b1-4)GlcNAc(b1-4)GlcNAc
# Procedure, shortened: as §1
# [3] = target: Neu5Ac(a2-6)Gal(b1-4)GlcNAc(b1-2)Man(a1-3)[Neu5Ac(a2-3)Gal(b1-4)GlcNAc(b1-2)Man(a1-6)]Man(b1-4)GlcNAc(b1-4)GlcNAc
# Procedure, shortened: as §1
# [4] = target: Neu5Ac(a2-6)Gal(b1-4)GlcNAc(b1-2)Man(a1-3)[Neu5Ac(a2-6)Gal(b1-4)GlcNAc(b1-2)Man(a1-6)]Man(b1-4)GlcNAc(b1-4)GlcNAc
# Procedure, shortened: as §1
# [5] = target: Neu5Ac(a2-6)Gal(b1-4)GlcNAc(b1-2)Man(a1-3)[Neu5Ac(a2-6)Gal(b1-4)GlcNAc(b1-2)Man(a1-6)]Man(b1-4)GlcNAc(b1-4)[Fuc(a1-6)]GlcNAc
# Procedure, shortened: as §1
# [6] = target: Neu5Ac(a2-6)Gal(b1-4)GlcNAc(b1-2)Man(a1-6)Man(b1-4)GlcNAc(b1-4)GlcNAc
# Procedure, shortened: as §1
# [7] = target: Neu5Ac(a2-6)Gal(b1-4)GlcNAc(b1-2)Man(a1-6)[Gal(b1-4)GlcNAc(b1-2)Man(a1-3)]Man(b1-4)GlcNAc(b1-4)GlcNAc
# Procedure, shortened: as §1
# [8] = target: Neu5Ac(a2-6)Gal(b1-4)GlcNAc(b1-2)Man(a1-6)[GlcNAc(b1-2)Man(a1-3)]Man(b1-4)GlcNAc(b1-4)GlcNAc
# Procedure, shortened: as §1
# [9] = target: Neu5Ac(a2-6)Gal(b1-4)GlcNAc(b1-2)Man(a1-6)[Man(a1-3)]Man(b1-4)GlcNAc(b1-4)GlcNAc
# Procedure, shortened: as §1
# [10] = target: Neu5Ac(a2-6)Gal(b1-4)GlcNAc(b1-2)[Neu5Ac(a2-6)Gal(b1-4)GlcNAc(b1-4)]Man(a1-3)[GlcNAc(b1-4)][Neu5Ac(a2-6)Gal(b1-4)GlcNAc(b1-2)[Neu5Ac(a2-6)Gal(b1-4)GlcNAc(b1-6)]Man(a1-6)]Man(b1-4)GlcNAc(b1-4)GlcNAc
# Procedure, shortened: as §1
# [11] = target: Neu5Ac(a2-6)Gal(b1-4)GlcNAc(b1-2)[Neu5Ac(a2-6)Gal(b1-4)GlcNAc(b1-4)]Man(a1-3)[GlcNAc(b1-4)][Neu5Ac(a2-6)Gal(b1-4)GlcNAc(b1-4)Man(a1-6)]Man(b1-4)GlcNAc(b1-4)GlcNAc
# Procedure, shortened: as §1
# [12] = target: Neu5Ac(a2-6)Gal(b1-4)GlcNAc(b1-2)[Neu5Ac(a2-6)Gal(b1-4)GlcNAc(b1-6)]Man(a1-6)[Neu5Ac(a2-6)Gal(b1-4)GlcNAc(b1-2)Man(a1-3)][GlcNAc(b1-4)]Man(b1-4)GlcNAc(b1-4)GlcNAc
# Procedure, shortened: as §1
# [13] = target: Neu5Ac(a2-6)Gal(b1-4)GlcNAc(b1-3)Gal(b1-3)GlcNAc
# Procedure, shortened: as §1
# [14] = target: Neu5Ac(a2-6)Gal(b1-4)GlcNAc(b1-3)Gal(b1-4)GlcNAc
# Procedure, shortened: as §1
# [15] = target: Neu5Ac(a2-6)Gal(b1-4)GlcNAc(b1-3)Gal(b1-4)GlcNAc(b1-2)Man(a1-3)[Neu5Ac(a2-6)Gal(b1-4)GlcNAc(b1-3)Gal(b1-4)GlcNAc(b1-2)Man(a1-6)]GalNAc
# Procedure, shortened: as §1
# [16] = target: Neu5Ac(a2-6)Gal(b1-4)GlcNAc(b1-3)Gal(b1-4)GlcNAc(b1-3)Gal(b1-4)GlcNAc
# Procedure, shortened: as §1
# [17] = target: Neu5Ac(a2-6)Gal(b1-4)GlcNAc(b1-3)Gal(b1-4)GlcNAc(b1-3)Gal(b1-4)GlcNAc(b1-2)Man(a1-3)[Neu5Ac(a2-6)Gal(b1-4)GlcNAc(b1-3)Gal(b1-4)GlcNAc(b1-3)Gal(b1-4)GlcNAc(b1-2)Man(a1-6)]GalNAc
# Procedure, shortened: as §1
# [18] = target: Neu5Ac(a2-6)Gal(b1-4)GlcNAc(b1-3)Gal(b1-4)GlcNAc(b1-3)GalNAc
# Procedure, shortened: as §1
# [19] = target: Neu5Ac(a2-6)Gal(b1-4)GlcNAc(b1-3)Gal(b1-4)GlcNAc(b1-3)[Neu5Ac(a2-6)Gal(b1-4)GlcNAc(b1-3)Gal(b1-4)GlcNAc(b1-6)]GalNAc
# Procedure, shortened: as §1
# [20] = target: Neu5Ac(a2-6)Gal(b1-4)GlcNAc(b1-3)Gal(b1-4)GlcNAc(b1-6)[Gal(b1-3)]GalNAc
# Procedure, shortened: as §1
# [21] = target: Neu5Ac(a2-6)Gal(b1-4)GlcNAc(b1-3)Gal(b1-4)[Fuc(a1-3)]GlcNAc(b1-3)Gal(b1-4)[Fuc(a1-3)]GlcNAc
# Procedure, shortened: as §1
# [22] = target: Neu5Ac(a2-6)Gal(b1-4)GlcNAc(b1-3)GalNAc
# Procedure, shortened: as §1
# [23] = target: Neu5Ac(a2-6)Gal(b1-4)GlcNAc(b1-3)[Neu5Ac(a2-6)Gal(b1-4)GlcNAc(b1-6)]GalNAc
# Procedure, shortened: as §1
# [24] = target: Neu5Ac(a2-6)Gal(b1-4)GlcNAc(b1-6)GalNAc
# Procedure, shortened: as §1
# [25] = target: Neu5Ac(a2-6)Gal(b1-4)GlcNAc(b1-6)[Gal(b1-3)GlcNAc(b1-3)]Gal(b1-4)Glc
# Procedure, shortened: as §1
# [26] = target: Neu5Ac(a2-6)Gal(b1-4)GlcNAc(b1-6)[Gal(b1-3)]GalNAc
# Procedure, shortened: as §1
# [27] = target: Neu5Ac(a2-6)Gal(b1-4)GlcNAc6S
# Procedure, shortened: as §1
# Neu5Ac(a2-6)GalNAc = target: Neu5Ac(a2-6)GalNAc
# Procedure, shortened: as §1
# [28] = target: Neu5Ac(a2-6)GalNAc(b1-4)GlcNAc
# Procedure, shortened: as §1
# [29] = target: Neu5Ac(a2-6)GalNAc(b1-4)GlcNAc6S
# Procedure, shortened: as §1
# [30] = target: Neu5Ac(a2-6)GlcNAc(b1-4)GlcNAc
# Procedure, shortened: as §1
binder,measurement,setting,value
B1,glycan array binding signal (z-score),[1],-0.099
same,glycan array binding signal (z-score),[2],0.009
same,glycan array binding signal (z-score),[3],-0.068
same,glycan array binding signal (z-score),[4],-0.091
same,glycan array binding signal (z-score),[5],-0.01
same,glycan array binding signal (z-score),[6],-0.059
same,glycan array binding signal (z-score),[7],-0.095
same,glycan array binding signal (z-score),[8],-0.115
same,glycan array binding signal (z-score),[9],-0.101
same,glycan array binding signal (z-score),[10],-0.077
same,glycan array binding signal (z-score),[11],-0.165
same,glycan array binding signal (z-score),[12],-0.128
same,glycan array binding signal (z-score),[13],-0.124
same,glycan array binding signal (z-score),[14],-0.142
same,glycan array binding signal (z-score),[15],-0.079
same,glycan array binding signal (z-score),[16],-0.126
same,glycan array binding signal (z-score),[17],-0.009
same,glycan array binding signal (z-score),[18],-0.144
same,glycan array binding signal (z-score),[19],-0.036
same,glycan array binding signal (z-score),[20],-0.087
same,glycan array binding signal (z-score),[21],-0.098
same,glycan array binding signal (z-score),[22],-0.049
same,glycan array binding signal (z-score),[23],-0.033
same,glycan array binding signal (z-score),[24],-0.076
same,glycan array binding signal (z-score),[25],-0.112
same,glycan array binding signal (z-score),[26],-0.099
same,glycan array binding signal (z-score),[27],-0.104
same,glycan array binding signal (z-score),Neu5Ac(a2-6)GalNAc,-0.085
same,glycan array binding signal (z-score),[28],-0.112
same,glycan array binding signal (z-score),[29],-0.041
same,glycan array binding signal (z-score),[30],-0.051
